Results as given in PubChem BioAssay AID1347428 (National Center for Advancing Translational Sciences (NCATS), 2020).
The campaign covered roughly 91,000 compounds. About 290 (0.32%) were called active. The inconclusive results got no clear call from the source; some entries with a clear call stand among them for comparison. Calls follow the shape of the dose curve; as a rule, active = well fitted inhibition curve with a large enough effect; inconclusive = small, poorly fitted or top-dose-only effect; inactive = no such curve, though single readings can be large or run the other way. Potencies beside an inconclusive call are fits to weak or partial responses and may not hold up.

Target: Single-stranded DNA cytosine deaminase (Homo sapiens) (UniProt Q9GZX7)
Assay: Primary qHTS assay for inhibitors of Activation Induced Cytidine Deaminase (AID): AID signal; also: nearly all actives have a fitted effect of over 25% in size
Conditions: AID deamination FRET fluorescence, UDG-coupled, 4 h; activity change, negative = inhibition: at 115 µM (top of the series)
% is scaled to controls: 0 for no effect and ±100 for the full control effect; potency is read from the fitted curve at half-maximal effect; tags tell the direction and shape of the fitted curve.

UniProt Q9GZX7, sequence (Q9GZX7 whole entry, looked up): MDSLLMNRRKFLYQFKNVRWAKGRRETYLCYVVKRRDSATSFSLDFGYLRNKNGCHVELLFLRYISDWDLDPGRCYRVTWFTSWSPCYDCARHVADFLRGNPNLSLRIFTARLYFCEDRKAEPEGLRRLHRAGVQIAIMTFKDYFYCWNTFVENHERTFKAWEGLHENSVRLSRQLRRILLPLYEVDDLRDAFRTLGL

SMILES | activity change, negative = inhibition | Potency
Cc1cccc(C(C)C)c1NC(=O)COC(=O)c1ccc2ccccc2n1 | inactive: -7.98% | –
Cc1c(Cl)cccc1-c1ccc(C(=O)Nc2ccc(F)cc2)o1 | – | inconclusive: 56.2 µM [inhibitor, partial curve, poor fit]
CCN(CC)C(=O)CSc1nc(-c2ccccc2F)nc2c1Cc1c(CO)cnc(C)c1O2 | – | active: 28.2 µM
COc1ccc(OC)c(-c2nnc3n(Cc4ccc(C)cc4)c(=O)c4ccccc4n23)c1 | – | inconclusive: 39.8 µM [inhibitor, partial curve, poor fit]
CC(C)CNC(=O)C(=O)O | inactive: -1.36% | –
Cc1ccc(NC(=O)CN2C(=O)CC(c3ccc(F)cc3)=Nc3ccccc32)cc1F | – | inconclusive: 100 µM [inhibitor, single point]
Cc1ccc(COc2ccccc2C2C3=C(CC(C)(C)CC3=O)OC3=C2C(=O)CC(C)(C)C3)cc1 | – | inconclusive: 31.6 µM [inhibitor, partial curve, poor fit]
Cc1ccc2nc(N3C(=O)C(O)=C(C(=O)c4ccc(C)o4)C3c3cccc(O)c3)sc2c1 (configuration not stated) | – | inconclusive: 56.2 µM [inhibitor, partial curve, poor fit]
C#CCN1CCC(C(=O)NCCN(C(C)C)C(C)C)CC1 | inactive: 4.49% | –
Cc1ccc(-c2nnc(Nc3ccc(Cl)c(Cl)c3)c3ccccc23)cc1S(=O)(=O)N(C)C | inactive: -1.35% | –
Cc1c(Cl)cccc1NC(=O)CSc1ncc(S(=O)(=O)c2ccc(C(C)C)cc2)c(=O)[nH]1 | – | inconclusive: 31.6 µM [inhibitor, partial curve, poor fit]
O=C(Nc1ccc(S(=O)(=O)N2CCCCC2c2cccnc2)cc1)c1ccc(F)cc1 (configuration not stated) | – | inconclusive: 70.8 µM [inhibitor, single point]
CC(Oc1ccccc1)C(=O)OCc1cc(=O)n2nc(C(C)C)sc2n1 (configuration not stated) | – | inconclusive: 89.1 µM [inhibitor, single point]
C=CCc1ccccc1OCCn1c(C2CC(=O)N(Cc3ccc(F)cc3)C2)nc2ccccc21 (configuration not stated) | – | inconclusive: 35.5 µM [inhibitor, partial curve]
COc1cccc(C2CC(=O)Nc3ccsc32)c1OC (configuration not stated) | inactive: 0.246% | –
COc1ccc(S(=O)(=O)c2cn(CC(=O)Nc3ccc(C)c(F)c3)c3nc(C)ccc3c2=O)cc1 | inactive: 19.3% | –
O=C(Nc1nnc(S(=O)(=O)N2CCOCC2)s1)c1cccc(Br)c1 | – | inconclusive: 14.1 µM [inhibitor, full curve]
Cc1cccc(CSc2ccc3nnc(CCNS(=O)(=O)c4ccccc4)n3n2)c1 | – | inconclusive: 79.4 µM [inhibitor, partial curve, poor fit]
COc1ccc(CCNC(=O)c2ccc(CSCc3ccc(C)cc3)o2)cc1OC | – | inconclusive: 56.2 µM [inhibitor, partial curve, poor fit]
CC(=O)NC(Nc1cc(C(F)(F)F)ccc1Cl)C(Cl)(Cl)Cl (configuration not stated) | inactive: -9.43% | –
COc1cc(-c2nc3cccc(C)n3c2Nc2ccc3c(c2)OCCO3)ccc1O | inactive: 39.1% | –
CCN1CCN(CCCNC(=O)c2cnn(-c3ccc(C)cc3)c2C2CCN(C(=O)OC(C)(C)C)CC2)CC1 | inactive: -3.88% | –
Cc1ccc(NC(=O)c2cc(-c3cccs3)on2)cc1C | inactive: 20.8% [at 57.5 µM] | –

SMILES | activity change, negative = inhibition | Potency
Cc1ccc(-n2c3nc(=O)[nH]c(=O)c-3cc3ccc(Cl)cc32)c(C)c1 | – | inconclusive: 56.2 µM [inhibitor, partial curve, poor fit]
CSCc1ccc(C(=O)Nc2ccc(C(F)(F)F)cc2)cc1 | inactive: -5.99% | –
CCCN(Cc1cccs1)C(=O)Nc1ccc(Br)c(C)c1 | – | inconclusive: 50.1 µM [inhibitor, partial curve, poor fit]
N#Cc1ccc(COC(=O)CCC(=O)c2ccccc2)cc1 | inactive: -10.1% | –
O=C(O)c1ccccc1NS(=O)(=O)c1ccc(N/N=C/c2c(-c3ccccc3)[nH]c3ccccc23)c([N+](=O)[O-])c1 | – | inconclusive: 79.4 µM [inhibitor, single point]
COC(=O)Nc1ccc(C)c(C)c1 | inactive: -4.42% | –
O=C(Nc1cccc(F)c1)c1cccn2c(-c3ccc(F)cc3)nnc12 | inactive: -22.2% | –
Cc1ccc(C)c(-c2csc(-c3nc(-c4ccccc4)cs3)n2)c1 | inactive: -14.1% | –
O=C(NCc1ccccc1S(=O)(=O)N1CCOCC1)c1ccc(F)cc1 | inactive: -7.41% | –
O=C(CCSCc1cnn(-c2ccccc2)c1-n1cccc1)NCc1ccc(Cl)cc1 | – | inconclusive: 20 µM [inhibitor, full curve, poor fit]
CN(C)c1ccc(N=Cc2c(O)ccc3ccccc23)cc1 | – | inconclusive: 100 µM [inhibitor, single point]
c1ccc(Oc2ncnc3scc(-c4ccccc4)c23)cc1 | – | inconclusive: 50.1 µM [inhibitor, partial curve, poor fit]
Cc1nn(C(=O)c2ccccc2)c(C)c1Sc1ccc(Cl)cc1 | – | inconclusive: 50.1 µM [inhibitor, partial curve, poor fit]
Cn1nc(C(=O)N2CCC(n3c(=O)[nH]c4ccccc43)CC2)c2ccccc2c1=O | inactive: 2.68% | –
Cc1ccc(Sc2c(C)nn(C(=O)COc3ccccc3)c2C)cc1 | – | inconclusive: 35.5 µM [inhibitor, single point]
COc1ccc(S(=O)(=O)NCCc2csc3nc(-c4ccc(Cl)cc4)nn23)cc1C | – | inconclusive: 70.8 µM [inhibitor, single point]
COc1ccc(C2CC(=O)Nc3ccsc32)cc1OCC(N)=O (configuration not stated) | inactive: 2.76% | –
O=C1CS(=O)(=O)C2(C(=O)Nc3ccccc32)N1c1cccc(Cl)c1 (configuration not stated) | – | inconclusive: 25.1 µM [inhibitor, single point]
Cc1ccc(C(=O)Nc2ccc(F)cc2)cc1S(=O)(=O)N1CCCCCC1 | – | inconclusive: 12.6 µM [inhibitor, full curve, poor fit]
CCOC(=O)COc1ccc(/C=N/NC(=O)C(O)(c2ccccc2)c2ccccc2)cc1 | inactive: -11.1% | –
Cn1nc(-c2ccc(OCC(=O)Nc3cccc(C(F)(F)F)c3)cc2)c2ccccc2c1=O | inactive: -4.1% | –
CC(C)c1ccc2oc(-c3ccc(Cl)c(NC(=O)c4cccs4)c3)nc2c1 | – | inconclusive: 7.94 µM [inhibitor, full curve, poor fit]
CCN(C(=O)c1ccc2c(c1)N(Cc1cccc(Cl)c1)C(=O)c1ccccc1S2=O)c1ccccc1 (configuration not stated) | – | inconclusive: 25.1 µM [inhibitor, full curve, poor fit]

SMILES | activity change, negative = inhibition | Potency
Brc1cccc(-c2nc3cc4c(cc3[nH]2)OCCO4)c1 | inactive: 15.4% | –
CCc1ccccc1Nc1nn2c(=O)c3ccc(C(=O)NCc4ccc(C)cc4)cc3nc2s1 | – | inconclusive: 56.2 µM [inhibitor, partial curve, poor fit]
CSc1cccc(NC(=O)c2cccc(Cl)c2Cl)c1 | inactive: -7.26% | –
Cc1ccc(C2=NN(CC(=O)NCCCN(CC(C)C)CC(C)C)C(=O)CC2)cc1 | – | inconclusive: 79.4 µM [inhibitor, partial curve, poor fit]
O=C(NC1CCCCCC1)C1CCN(C(=O)N2CCOc3ccc(Cl)cc32)CC1 | inactive: 8.53% | –
Cc1ccc(Cn2cc(C(=O)c3ccc(F)cc3)c(=O)c3cc4c(cc32)OCO4)cc1 | – | inconclusive: 39.8 µM [inhibitor, single point]
COc1ccc(-n2c(C)c(C(C)=O)c3cc(OC(=O)c4ccc(C)cc4)ccc32)cc1 | – | inconclusive: 17.8 µM [inhibitor, full curve]
Cc1ccc(OCC(=O)NCC(c2ccc(Cl)cc2)N2CCCCC2)cc1 (configuration not stated) | – | inconclusive: 56.2 µM [inhibitor, partial curve, poor fit]
CCCN(CCC)CCNC(=O)c1cc2c(-c3ccc(Cl)cc3)nn(C)c2s1 | – | inconclusive: 50.1 µM [inhibitor, partial curve, poor fit]
COc1ccc(Cn2c(=O)n(-c3ccccc3C)c(=O)c3c4c(sc32)CN(C(C)=O)CC4)cc1 | – | inconclusive: 89.1 µM [inhibitor, single point]
O=[N+]([O-])c1ccc(Cl)c(/C=N/Nc2nc(Cl)c(Cl)cc2Cl)c1 | – | inconclusive: 56.2 µM [inhibitor, partial curve, poor fit]
COc1cc(-c2noc(CN3CCN(c4cccc(Cl)c4)CC3)n2)cc(OC)c1OC | – | inconclusive: 39.8 µM [inhibitor, partial curve]
CSc1cccc(NC(=O)CC(c2cccs2)N2Cc3ccccc3C2=O)c1 (configuration not stated) | – | inconclusive: 50.1 µM [inhibitor, partial curve, poor fit]
COCCNC(=O)NC(=O)COC(=O)c1ccc(COc2ccc3c(C)cc(=O)oc3c2)cc1 | – | inconclusive: 44.7 µM [inhibitor, partial curve, poor fit]
CCN(CC)CCNC(=O)c1cc(-c2ccc(Br)s2)nc2ccccc12 | – | inconclusive: 79.4 µM [inhibitor, single point]
O=C(NCCc1nc2ccccc2n1Cc1ccccc1)c1ccco1 | – | inconclusive: 79.4 µM [inhibitor, single point]
Cc1ccc(C)c(CSc2ccc3nnc(CCNS(=O)(=O)c4ccccc4)n3n2)c1 | – | inconclusive: 56.2 µM [inhibitor, partial curve, poor fit]
CCCCCc1ccc(-c2ccc(-c3ccc(O)cc3)nc2)cc1 | inactive: -8.35% | –
COC(=O)c1cc(-c2ccco2)nc2c(C)cccc12 | – | inconclusive: 79.4 µM [inhibitor, partial curve, poor fit]
CC(Sc1cc(Cl)ccc1Cl)C(=O)NC(C)c1ccccn1 (configuration not stated) | inactive: -9.92% | –
COc1ccc(NC(=O)C2CCCN(S(=O)(=O)c3ccc4c(c3)CCCC(=O)N4)C2)cc1OC (configuration not stated) | inactive: 43.2% | –
